# This list was built around the results that the source calls inconclusive (neither active nor inactive); the mix of calls is not that of the screen. No potency is given beside an inconclusive call; the fits are too rough. Activity calls are given as the source filed them. The call rests on the fitted dose curve; in most records, active means well fitted inhibition curve with a large enough effect; inconclusive means small, poorly fitted or top-dose-only effect; inactive means no such curve, though single readings can be large or run the other way.
# Test system: Zika virus NS2B-NS3 protease (linked construct)
# Assay: Primary screen NINDS Rhodamine qHTS for Zika virus inhibitors (AID 1347160); further: nearly all actives have a fitted effect of over 55% in size
# Conditions: purified NS2B-NS3 protease, Rhodamine110 substrate fluorescence; series mostly up to 57.1 µM; activity change, negative = inhibition: at the top concentration
# Text: Avindra Nath, Ph.D., National Institute of Neurological Disorders and Stroke (NINDS), Bethesda, MD
# Radhakrishnan Padmanabhan, Ph.D., Georgetown University (GU), Washington D.C.
# Zika Virus causes congenital defects, including microcephaly and is associated with Guillain-Barre syndrome, eningoencephalitis and myelitis in infected adult. […] Using a target-based approach, we hope to establish a screening paradigm to uncover novel, cell-active NS2B-NS3 protease (Zika Virus) specific inhibitors from NCATS' collection of small molecules using qHTS.
# Four assay panel was created to identify potential Zika Virus inhibitors. Namely, (1) GU unlinked NS2B-NS3 AMC tagged protease qHTS, (2) GU unlinked NS2B-NS3 Rhodamine tagged protease qHTS, (3) NINDS linked NS2B-NS3 AMC tagged protease qHTS, (4) NINDS linked NS2B-NS3 Rhodamine tagged protease qHTS. Active compounds were re-acquired and re-screened to confirm inhibition. Inhibitors were further screened against various confirmatory and counterscreens in dose response format.
# Early Translation Branch (ETB)
# National Center for Advancing Translational Sciences (NCATS), Rockville, MD
# National Institute of Health (NIH), Bethesda, Maryland
# For the linked assay, Nath lab (NINDS) provided the purified linked NS2B-NS3 protease which is consists of hydrophilic domain of NS2B linked to the NS3 protease domain by a flexible (-[…]-) linker. Control compound aprotinin is obtained from Thermo Scientific (#78432; Waltham, Massachusetts). Rhodamine110 substrate ([N-Cbz]-Nle-Lys-Arg-Arg-Rhod110-Arg-Arg-Lys-Nle-[N-Cbz]) was purchased from either Genscript or Bachem.
# 1536-well Protease (Rhodamine110 Substrate) Assay:
# Briefly, 3 microL of enzyme (25 nM final concentration), in assay buffer (10 mM Tris-HCl pH 8.0 with 0.01% Tween 20) were dispensed into a 1,536-well solid-bottom black plate (Greiner Bio One, Monroe, NC). Twenty-three nL of compounds (final concentration range 7.28 nM to 114 microM) or control Aprotinin (final concentration range 3.47 nM to 114 microM) were transferred via Wako Pin-tool (Wako Automation, Richmond, VA). Samples were incubated (room temperature, protected from light) for 15 minutes followed by a 1 microL Rhodamine110 substrate addition (1.5 microM final concentration). Plates were then immediately read on a ViewLux High-throughput CCD imager (PerkinElmer, Waltham, MA) equipped with FITC fluorescence optics (480(20) nm excitation, 540(25) nm emission), then incubated (room temperature, protected from light) for 15 minutes (~15% conversion). The change in fluorescence intensity over the 15-minute reaction period was normalized against no-inhibitor and no-enzyme controls and the resulting percent inhibition data were fitted to a 4-parameter Hill equation. Aprotinin was used as intraplate control.
# On the % scale 0 is the no-effect control and ±100 the full control effect; potency means the concentration at half of the fitted maximal effect; tags describe the fitted curve by direction and shape.
SMILES,"activity change, negative = inhibition",outcome,Potency
CC(=O)OC/C(=C/C(=O)O)CC[C@@H]1C(C=O)=CC[C@@H]2C(C)(C)CCC[C@@]12C,inactive: -3.78% [at 33.1 µM],–,–
CCS(=O)(=O)N(Cc1cccnc1)c1cccc(-c2ccc(C#N)cc2)c1,–,inactive,–
CCOc1cc(C(C)(C)C)ccc1C1=NC(C)(c2ccc(Cl)cc2)C(C)(c2ccc(Cl)cc2)N1C(=O)N1CCN(CCCS(C)(=O)=O)CC1 (stereo not given),–,–,"inconclusive [inhibitor, single point]"
C/C=C/C=C/c1cc2c(C=O)c(O)c(CC=C(C)C)cc2o1,–,–,active: 17.8 µM
CCCc1cc2c(N3CCN(C4=NCC(C)(C)S4)CC3)ncnc2s1,inactive: 14%,–,–
COc1ccccc1OCCN1CC(COc2cccc3[nH]c4ccccc4c23)OCC1=O (stereo not given),inactive: 9.49%,–,–
N#Cc1c[nH]c2c(C(=O)N3CCN(CCc4ccc(F)cc4)CC3)cccc12,–,–,"inconclusive [inhibitor, partial curve, poor fit]"
Nc1nccn2c(C3CCC(C(=O)O)CC3)nc(-c3cc4cccc(Cl)c4[nH]3)c12 (stereo not given),–,–,"inconclusive [inhibitor, partial curve, poor fit]"
CN1CCN(C2CCN(C(=O)Nc3cc(Oc4ccc(NC(=O)C5(C(=O)Nc6ccc(F)cc6)CC5)c(F)c4)ccn3)CC2)CC1,inactive: 189%,–,–
CC1(C)CCC(C)(C)c2cc3c(cc21)Sc1ccccc1N=C3c1ccc(C(=O)O)cc1,–,–,active: 2.24 µM
CCCC(C(=O)O)c1c(C)nc2ccc(Cl)cc2c1-c1ccccc1 (stereo not given),–,–,active: 14.1 µM
C=C(CCC1C(C)(O)CCC2C(C)(C)C(O)CCC12C)C(O)CO (stereo not given),–,–,"inconclusive [inhibitor, partial curve, poor fit]"
Nc1ncnc2c1c(-c1ccc(Oc3ccccc3)cc1)nn2[C@@H]1CCCNC1,–,inactive,–
COc1ccc(-c2ccccc2)cc1NS(=O)(=O)c1cc(Cl)cc(Cl)c1O,–,–,active: 1.58 µM
CC(C)CC(=O)O[C@@H]1O[C@H](CO)[C@@H](O[C@H]2O[C@H](C)[C@@H](N[C@H]3C=C(CO)[C@@H](O[C@H]4O[C@H](CO)[C@@H](O[C@H]5O[C@H](CO)[C@@H](O[C@H]6O[C@H](CO)[C@@H](O)[C@H](O)[C@H]6O)[C@H](O)[C@H]5O)[C@H](O)[C@H]4O)[C@H](O)[C@H]3O)[C@H](O)[C@H]2O)[C@H](O)[C@H]1O,–,–,"inconclusive [inhibitor, single point]"
N#Cc1ccc(Nc2nc(-c3ccc(O)cc3O)cs2)cc1C(F)(F)F,–,–,active: 17.8 µM
C/C(=C/CO)CCC1C(C)CCC2C(C)(C)CCCC12C (stereo not given),–,–,"inconclusive [inhibitor, partial curve]"
C/C=C/C=C/C=C/C(=O)O[C@@H]1[C@@H](OC)C2=C(C(=O)N(C(CCC(=O)O)C(=O)O)C2)[C@@]2(C)CCCC(C)(C)[C@H]12 (stereo not given in full),–,–,active: 7.08 µM
C/C=C/C=C/C=C/C(=O)O[C@@H]1C=C(CO)C(O)(C(=O)OC)[C@@]2(C)CCCC(C)(C)C12 (stereo not given in full),–,–,"inconclusive [inhibitor, single point]"
CC(=O)O[C@@H]1C2=C(O)C(=O)[C@](C)(OC(C)=O)C(=O)C2=CO[C@@]12O[C@@H](C)CC[C@H]2OC(C)=O,inactive: -3.59% [at 33.1 µM],–,–

SMILES,"activity change, negative = inhibition",outcome,Potency
CC/C(C)=C/C(=O)OC1C(OC2(C)CCC3C(C4C(C)CCC42)C3(C)C)OC(C)C(O)C1O (stereo not given),–,–,"inconclusive [inhibitor, single point]"
CC(=O)OCCC(C)CCC1C(C)(O)CCC2C(C)(C)CCCC21C (stereo not given),–,–,active: 11.2 µM
CCC/C=C/c1cc2c(C=O)c(O)c(CC=C(C)C)cc2o1,–,–,"inconclusive [inhibitor, partial curve, poor fit]"
COc1ccc2nc3n[nH]c(C)c3c(NCCOCCO)c2c1,–,–,"inconclusive [inhibitor, single point]"
O=C(O)c1cc(-c2ccccc2)nc2ccccc12,–,–,"inconclusive [inhibitor, partial curve, poor fit]"
C[C@]12CC[C@@H]3c4ccc(O)cc4CC[C@H]3[C@@H]1CC[C@@H]2OC(=O)CCC1CCCC1,–,–,"inconclusive [inhibitor, single point]"
Cc1cc(C)c2c(c1)C(N(Cc1cc(C(F)(F)F)cc(C(F)(F)F)c1)c1nnn(C)n1)CCCN2CC1CCC(C(=O)O)CC1 (stereo not given),–,–,active: 3.55 µM
O=C(Cc1ccc(-c2ccc(OCCN3CCOCC3)cc2)cn1)NCc1ccccc1,–,inactive,–
CC(O)/C=C/C1(O)C(C)C(O[C@@H]2O[C@H](CO)[C@@H](O)[C@H](O)[C@H]2O)C(O)CC1(C)C (stereo not given in full),inactive: 24.6% [at 33.1 µM],–,–
Cc1cc(OCCCS(C)(=O)=O)cc(C)c1-c1cccc(COc2ccc(C3=CC(=O)NS3=O)cc2)c1 (stereo not given),–,–,"inconclusive [inhibitor, full curve, poor fit]"
CC1(C=O)CCCC2(C)C1CCC13CC(CO)C(CCC12)C3 (stereo not given),–,–,"inconclusive [inhibitor, single point]"
CC(C)CC(=O)n1cc(C(N)=O)c(=O)cc1C(O)c1ccccc1 (stereo not given),–,–,"inconclusive [inhibitor, single point]"
C=C1CC[C@H](O)CC1=C/C=C1\CCC[C@]2(C)[C@@H]([C@H](C)/C=C/[C@H](C)C(C)C)CC[C@@H]12,–,–,active: 12.6 µM
CC(C)=CCCC1(C)C2CCC1(C)C(O)C2 (stereo not given),–,–,"inconclusive [inhibitor, partial curve]"
O=C(Nc1cc(C(F)(F)F)cc(C(F)(F)F)c1)c1cc(Cl)ccc1O,–,–,active: 7.94 µM
C=C(C)C1CCC2(C(=O)O)CCC3(C)C(CCC4C5(C)C(C=O)C(O)C(C)(C)C5CCC43C)C12 (stereo not given),–,–,"inconclusive [inhibitor, single point]"
O=C(c1ccc(F)c(F)c1Nc1ccc(I)cc1F)N1CC(O)([C@@H]2CCCCN2)C1,–,inactive; activator,–
Nc1ncnc2c1nc(N)n2[C@@H]1O[C@H](CO)[C@@H](O)[C@H]1O,inactive: 22.2%,–,–
O=C(NCCCCN1CCN(c2cccc(Cl)c2Cl)CC1)c1cc2ccccc2s1,–,–,"inconclusive [inhibitor, partial curve, poor fit]"
O=C(O)c1ccc(O)c2ncc(N3CCCN(CCc4cccc5ccccc45)CC3)cc12,–,–,active: 6.31 µM

# — PubChem BioAssay (NCATS)
